The source of these data is ChEMBL document CHEMBL4888484, “Replenishing the malaria drug discovery pipeline: Screening and hit evaluation of the MMV Hit Generation Library 1 (HGL1) against asexual blood stage Plasmodium falciparum ,using a nano luciferase reporter read-out” (2022).

SMILES strings stand for the structures. Out of some 150,000 compounds screened, about 540 (0.36%) showed an effect of 50% or more. The list shows a part of the results.

This assay relates to Plasmodium falciparum. Nature of the assay: Primary screen in NF54 nanoGlo assay, in single point, at 2uM, 72h; a lower Z score goes with more inhibition. The format is functional, Erythrocyte. The conditions noted are these: timepoint 72 hour.
Broadly, the % Inhibition is the relative decrease from the control value, in per cent. Turning to `O=C(NCc1ccco1)c1cc(-c2cccc(F)c2)ns1`, the “% Inhibition” value was -6% and the Z score stood at 0.83.
For `CC1CCN(C(=O)c2ccc(N3CC(C(N)=O)CCC3C)nc2)CC1` (centres undefined) the same measures were -8% and 0.74.
For `CCc1nc(CCN2CCN(C)CC2)n(-c2ccc(S(N)(=O)=O)cc2)n1` the same measures were 3% and -0.58.
In the same order, the values of `CC(C)(C(=O)N1CC[C@H](CN2CCCC2)C1)c1ccc2c(c1)OCO2` are -12% and 1.91.
Take `CCN(CC)S(=O)(=O)c1ccc(-c2csc(N3N=C(c4ccc(OC)cc4)C[C@H]3c3ccc(OC)cc3)n2)cc1`: the “% Inhibition” value worked out at 5% and the Z score is on record as -0.77.
For `Cc1ccccc1N1CCN(c2ncccc2CNc2cccc(C#N)n2)CC1` the same measures were -4% and 0.81.
For `Cc1cc(C)cc(CN2CCN(C(=O)[C@@H](C)CN3CCOCC3)CC2=O)c1` the same measures were -14% and 1.65.
For `O[C@H]1[C@H](NCc2cccs2)[C@H]2CO[C@H](O2)[C@@H]1n1cncn1` the same measures were 5% and -0.74.
In the case of `CC(C)N(Cc1c(-c2ccccc2)noc1N1CCOCC1)C(=O)c1ccccc1F`, the “% Inhibition” value was -3% and the Z score is 0.39.
Regarding `O=C(c1ccc(F)c(F)c1)N1CCC(O)(Cn2cc(C(=O)N3CCOCC3)nn2)CC1`, the “% Inhibition” value was 30% and the Z score is -3.38.
`CCCN1CCC(CC(=O)N[C@@H](C)c2cnn(-c3ccccc3)c2)CC1`: the “% Inhibition” value is reported as -13% and the Z score was 2.38.
For `Nc1nccnc1C(=O)NCc1ccn2ccnc2c1` the same measures were 0% and 0.03.
For the compound `C[C@H]1C(=O)N(C)CCN1CCCCC1CCOCC1`, the “% Inhibition” value is given as -7% and the Z score stood at 0.79.
For `Cc1ccc(S(=O)(=O)Nc2nc3c(C)cc(NC(=O)Nc4cccc(F)c4)cc3s2)cc1` the same measures were 31% and -3.54.
With `CC(C)(C)C(=O)N1C[C@@H]2CN(C3CCCC3)CC[C@]2(CO)C1`, the “% Inhibition” value is reported as -14% and the Z score turned out to be 1.95.
In the same order, the values of `C[C@H]1c2ccccc2CN1c1nnc(-c2n[nH]c3c2CCCC3)n1C` are -5% and 0.97.
For `CCc1nn(C)c(Cl)c1CN1CC[C@H](NC(=O)c2cnccn2)[C@@H](O)C1` the same measures were 6% and -1.07.
In the same order, the values of `CS(=O)(=O)N1CCN(Cc2noc(C3CC3)n2)CC1` are 16% and -2.04.
Regarding `Cc1cc2c(N3CC[C@H](NC(=O)c4ccccc4)[C@@H](O)C3)ncnc2s1`, the “% Inhibition” value is recorded as -11% and the Z score amounted to 1.05.
Take `Cc1cccc(-n2cc([C@H]3c4nc[nH]c4CCN3Cc3[nH]cnc3C)cn2)c1`: the “% Inhibition” value was -5% and the Z score was determined as 0.57.
In the same order, the values of `Cc1cc(=O)n(CC(=O)Nc2ccc(Cl)c(C(F)(F)F)c2)c(-c2cccc(Cl)c2)n1` are -3% and 0.34.
As to `COc1cccc(C2(c3noc([C@]45CNC[C@H]4CCOC5)n3)CC2)c1`, the “% Inhibition” value was -5% and the Z score was 0.62.
